The whole screen tested about 50,000 compounds, of which about 800 (1.6%) showed an effect of 50% or more. This is one part of the list.
What follows are compounds tested against Bcl-2-like protein 10 (Homo sapiens) (UniProt Q9HD36) (assay: Phenotype converters, Bcl-B/TR3 peptide binding displacement, primary biochemical FP (AID 1240;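 further: 0% = Bcl-B with tracer peptide and DMSO and 100% = tracer peptide lacking Bcl-B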)). Details: GST-Bcl-B / FITC-TR3 peptide fluorescence polarization; stronger effect = higher value; compound at 3.75 mg/L.
Sequence of UniProt Q9HD36 (Q9HD36 whole entry, looked up): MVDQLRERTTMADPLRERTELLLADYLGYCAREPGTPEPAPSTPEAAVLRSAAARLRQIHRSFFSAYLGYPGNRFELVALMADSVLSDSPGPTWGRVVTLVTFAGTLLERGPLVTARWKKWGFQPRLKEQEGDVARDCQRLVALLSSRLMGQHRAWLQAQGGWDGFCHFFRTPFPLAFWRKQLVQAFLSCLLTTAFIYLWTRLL

| SMILES | displacement |
| --- | --- |
| O=C(Cn1cnc([N+](=O)[O-])n1)Nc1ccc(F)cc1F | 16.7% |
| COC(=O)c1ccc(/C=N/NC(=O)c2cc(-c3ccc4ccccc4c3)n[nH]2)cc1 | -1.3% |
| COc1ccccc1/C=C1/SC(=S)N(CCC(=O)Nc2ccccc2)C1=O | 9.9% |
| COc1ccc(N2C(=O)C3C4C=CC(C5CC45)C3C2=O)c([N+](=O)[O-])c1 (stereo not given) | 12.7% |
| CCN1C(=O)/C(=C\c2cc(Cl)ccc2O)SC1=S | -4.9% |
| Cc1cccc(C(=O)O/N=C(\N)c2ccncc2)c1 | 8.5% |
| O=C(O)C1C2CCC(O2)C1C(=O)N1CCN(c2ccccc2F)CC1 (stereo not given) | -9.9% |
| CCOc1ccc2nc(Nc3nc(C)c(C)c(=O)[nH]3)nc(C)c2c1 | -15.1% |
| O=S(=O)(c1cc(Cl)ccc1Br)n1nnc2ccccc21 | 0% |
| CCOc1ccccc1C=Nc1ccccc1C(=O)Nc1ccccc1 | -7.9% |
| Cc1ccc([N+](=O)[O-])cc1-c1ccc(/C=C(\C#N)C(=O)NCc2ccco2)o1 | 14.8% |
| COc1ccccc1CN1CCN(Cc2ccncc2)CC1 | -22.9% |
| Cc1onc(-c2c(F)cccc2Cl)c1C(=O)NCc1cccnc1 | -2.4% |
| CC1CC(C)(C)N(C(=O)CN2C(=O)c3ccccc3C2=O)c2ccccc21 (stereo not given) | 1.4% |
| O=C(NC(NC(=S)N1CCOCC1)C(Cl)(Cl)Cl)c1cccc([N+](=O)[O-])c1 (stereo not given) | 10.3% |
| CC1=NN(c2ccccc2)C(=O)C1/C=C1\NC(=S)NC1=O (stereo not given) | 0.7% |
| Cc1nc2ccccc2n1C(=O)c1cc(Cl)ccc1Cl | 7.5% |
| Cc1ccc(S(=O)(=O)/N=C/c2ccc(Cl)cc2Cl)cc1 | -10.4% |
| COc1ccc(CN2CCN(CC3CC4C=CC3C4)CC2)c(OC)c1OC (stereo not given) | 4.4% |
| O=C(NC(=S)Nc1ccc(N2CCOCC2)c(Cl)c1)c1ccc(Cl)cc1 | -7.8% |
| Cc1ccc(-n2nc3ccc(NC(=S)NC(=O)c4ccc(Cl)cc4)cc3n2)cc1 | 6.4% |
| COc1ccc2nc(Nc3nc(C)cc(-c4ccccc4)n3)nc(C)c2c1 | -14.2% |

| SMILES | displacement |
| --- | --- |
| COC(=O)c1cc(NC(=O)/C=C/c2ccc(F)cc2)cc(C(=O)OC)c1 | -11.7% |
| CC(C)N1C(=O)c2cccc3c(N4CCCCC4)ccc(c23)C1=O | 9.8% |
| CCNC(=O)N1c2ccc(OC)cc2C(C)=CC1(C)C | 14.5% |
| COc1ccc(Br)cc1C(=O)NCCNc1ccc(Cl)cc1[N+](=O)[O-] | 11% |
| O=C(CSc1cccc2cccnc12)OCC(=O)c1ccccc1 | 1.8% |
| Cc1cccc(OCC(=O)Nc2ccccc2-c2ccccc2)c1 | -25.9% |
| COc1ccc2oc(=O)c(C(=O)N3CCN(C)CC3)cc2c1 | -8.4% |
| CCc1nnc(NS(=O)(=O)c2ccc(NC(=O)c3cccc4ccccc34)cc2)s1 | 19% |
| Cc1nc(SCC(=O)Nc2nnc(-c3ccc([N+](=O)[O-])cc3)s2)n[nH]1 | -9.5% |
| COc1ccccc1C/C(N)=N/OC(=O)/C=C/c1ccccc1 | 0.9% |
| C=CCNC(=O)CN(c1ccc(OC)cc1OC)S(C)(=O)=O | -10.1% |
| Cc1ccc(OCC(=O)NCc2ccccc2Cl)c(Br)c1 | -0.3% |
| COc1ccc(N(Cc2ccc(C(=O)NCc3ccccc3)cc2)S(=O)(=O)c2ccccc2)cc1 | -11% |
| CCOc1ccc(NC(=O)CC2S/C(=N\N=C(/C)c3ccc(Cl)cc3)NC2=O)cc1 (stereo not given) | 8.6% |
| CCOc1ccc(C(NC(C)=O)c2ccc(OC)cc2)cc1 (stereo not given) | -10% |
| COc1cc(C=C2C(=O)OC(C)(C)OC2=O)cc(Cl)c1O | -6.6% |
| CCOC(=O)c1ccc(NC(=O)C(=O)NCc2ccccn2)cc1 | -20.8% |
| CC1(C)Cc2ccccc2/C(=C(\C#N)C(=O)Nc2ccccc2)N1 | -5.6% |
| Cc1ccc(-c2nc3cc(Cl)cc(Cl)c3o2)cc1NC(=O)COc1ccccc1 | 41% |
| Cn1cnnc1SCC(=O)N1CCCc2ccccc21 | 15.4% |
| O=C(Nc1ccccc1)Nc1nnc(Cc2ccc(Cl)c(Cl)c2)s1 | 3.4% |
| O=C1c2ccccc2-c2onc3c(N4CCN(c5ccccc5)CC4)ccc1c23 | -8.2% |

| SMILES | displacement |
| --- | --- |
| Cc1oc2cc(Br)c(O)cc2c1C(=O)OC(C)C | 7.1% |
| COc1ccc(S(=O)(=O)N2CCN(S(C)(=O)=O)CC2)cc1 | 7.4% |
| CCOc1ccc(Cl)cc1/C=C1\C(=N)N2N=C(CC)SC2=NC1=O | 2% |
| CC(=O)c1c(C)oc2ccc(NS(=O)(=O)c3cccc([N+](=O)[O-])c3)cc12 | 7.1% |
| CCN(Cc1ccccc1)C(=O)c1cc(C(=O)OC)cc([N+](=O)[O-])c1 | 6.7% |
| CNC(=S)Nc1ccc(C23CC4CC(CC(C4)C2)C3)cc1 | -20.9% |
| CCC1=NN2C(=N)/C(=C/c3ccc(OC(C)=O)cc3)C(=O)N=C2S1 | -1.9% |
| CC(C)(CN1CCOCC1)NS(=O)(=O)c1ccc(Cl)cc1 | 7.4% |
| O=C(Nc1cccc(C(F)(F)F)c1)c1nn2c(c1Cl)NC(c1ccccc1)CC2C(F)(F)F (stereo not given) | 3.9% |
| CCN(CC)c1ccc(NC(=O)c2ccc(OCc3ccccc3)cc2)cc1 | 11.2% |
| Cc1cc(-n2cc(C=O)c(-c3ccccc3)n2)nc2ccccc12 | 75.4% |
| O=C(/C=C/c1ccccc1)c1ccc([N+](=O)[O-])cc1 | 14.1% |
| Cc1cc(C)cc(NC(=O)c2ccc([N+](=O)[O-])c(C)c2)c1 | -9.1% |
| CC(=O)n1cc(/C=C2\C(=O)NC(=S)N(c3cccc4ccccc34)C2=O)c2ccccc21 | -7.4% |
| Cc1cc(OCC(=O)Nc2ccc(Cl)cn2)ccc1Cl | 8% |
| CCCCOC(=O)COC(=O)COc1c(Cl)cc(Cl)cc1Cl | -2.8% |
| COc1ccc(NC(=O)c2cccc(Cl)c2)cc1 | -1.3% |
| COc1ccc(S(=O)(=O)N2CCN(C(=O)COc3ccc(Cl)cc3)CC2)cc1 | 1.9% |
| O=C(CSc1nnc(-c2ccc(Br)cc2)o1)NC1CCCCC1 | 7.5% |
| CN1CCN(C(=O)c2cc3nc(-c4ccc([N+](=O)[O-])cc4)cc(C(F)(F)F)n3n2)CC1 | 13.3% |
| Cc1cc(C)c2cccc(NC(=O)C3CC3)c2n1 | 14.2% |
| COCCCNC(=S)Nc1ccc(Cl)cc1Cl | -14.3% |

| SMILES | displacement |
| --- | --- |
| O=C(Cc1c(O)c2ccccc2[nH]c1=O)N1CCOCC1 | -1.9% |
| COC(=O)c1cc(NC(=O)c2ccc(-c3cc(Cl)ccc3Cl)o2)cc(C(=O)OC)c1 | 2.4% |
| CCc1ccc(-c2nc3cc(NC(=O)c4ccc5c(c4)OCCO5)ccc3o2)cc1 | 1.6% |
| CCOC(=O)c1c(NC(=O)C2CC2c2ccccc2)sc2c1CCC(C)C2 (stereo not given) | -8.5% |
| C=CCC1CC=CC(CC=C)(C(O)(CC=C)CC=C)N1 (stereo not given) | 3.4% |
| COc1ccc(C(=O)Nc2ccc([N+](=O)[O-])cc2C)cc1 | 18.6% |
| COc1ccc(NC(=O)c2ccc(C#Cc3ccccc3)cc2)cc1 | -3% |
| CCN(CC)c1ccc(C(=O)n2cnc3ccccc32)cc1 | 14.9% |
| Cc1ccc(-c2ccc(OCC(=O)NCCc3ccccc3)cc2)cc1 | -7% |
| O=C1N=C(N2CCOCC2)S/C1=C\c1ccc2c(c1)OCO2 | -11.3% |
| COc1cccc(N2C(=O)CC(N3CCN(Cc4ccc5c(c4)OCO5)CC3)C2=O)c1 (stereo not given) | 10.6% |
| Cc1n[nH]c(C)c1CCCCCCOc1ccccc1Cl | -8.7% |
| Cc1cccc(NC(=O)c2ccc(OCC(C)C)cc2)c1 | 10.3% |
| O=C(Nc1nncs1)c1ccc2c(c1)OCO2 | -4.7% |
| CCOC(=O)c1c(C)n(CCc2ccc(OC)c(OC)c2)c2ccc(OC)cc12 | -8.1% |
| CCc1ccccc1NC(=O)C(=O)NCCCOC | -0.8% |
| N/C(=N\c1nc2ccccc2s1)NC(=O)c1ccccc1 | -4.1% |
| CCOC(=O)C1=C(C)NC(=S)NC1c1ccc(Cl)cc1 (stereo not given) | -7.9% |
| CCCCOc1ccccc1NC(=O)c1ccc(OC)c(OC)c1 | -17.1% |
| O=C1c2ccc(-c3nc4cc(Cl)ccc4c(=O)o3)cc2C(=O)N1c1cccc([N+](=O)[O-])c1 | 5.4% |
| Cc1c(NS(=O)(=O)c2ccccc2)cccc1[N+](=O)[O-] | -2.8% |
| Cc1ccc2ncnc(NCc3cccnc3)c2c1 | 0.9% |

| SMILES | displacement |
| --- | --- |
| Cc1ccc(OCCOCCN2CCC(C)CC2)cc1 | -3% |
| CC(=O)Oc1ccc(NC(=O)CN2C(=O)c3ccccc3C2=O)c(C)c1 | -5.1% |
| COc1ccc(Cl)cc1N=Cc1ccc(OC2CSC2)cc1 | 1.2% |
| Cc1ccc(-c2ccccc2NC(=O)c2ccccc2)o1 | 14.5% |
| Cc1cccc(N2CCN(C(=O)c3ccccc3)CC2)c1C | -2.5% |
| CCN(CC)S(=O)(=O)c1cc(C(=O)Nc2ccc(C)cc2)ccc1C | -14.1% |
| CS(=O)(=O)N1CCN(Cc2ccc(C(F)(F)F)cc2)CC1 | 8.1% |
| Cn1cc(/C=C2/SC(=S)N(c3cccc(C(F)(F)F)c3)C2=O)c2ccccc21 | -7.6% |
| O=C(CN(c1cccc([N+](=O)[O-])c1)S(=O)(=O)c1ccccc1)N1CCOCC1 | 5% |
| O=[N+]([O-])c1cc(C(F)(F)F)cc([N+](=O)[O-])c1N1CCN(CCO)CC1 | -2.1% |
| CSc1ccccc1NC(=O)c1cc2n(n1)C(C(F)(F)F)CC(c1ccc(Br)cc1)N2 (stereo not given) | 6.7% |
| CC1CN(c2ccc([N+](=O)[O-])cc2)CCN1C(=O)c1ccc(Cl)cc1 (stereo not given) | -3.8% |
| COc1ccc(NC(=O)COc2cccc3ccccc23)c(OC)c1 | 12.4% |
| COc1ccc(NC(=O)CCC(=O)NCCO)cc1 | -4.3% |
| O=C(Nc1ccc(-c2nc3ccccc3o2)c(O)c1)c1cccc(Cl)c1Cl | 4.2% |
| COc1cc(/C=N\Nc2nnc(-c3ccccc3)c(=O)[nH]2)cc([N+](=O)[O-])c1O | -5.8% |
| Cc1ccc(C(=O)Nc2ccc3c4c(cccc24)CC3)cc1[N+](=O)[O-] | 0.3% |
| COc1ccccc1N1CCN(/N=C(\C)c2ccc(O)cc2)CC1 | 16.9% |
| CN(CCOC(=O)C(C)(c1ccccc1)c1ccccc1)C(C)(C)C | 12.7% |
| COc1cccc(C(=O)N2N=C(C(F)(F)F)CC2(O)C(C)(C)C)c1 (stereo not given) | 7.9% |
| CC(=O)Nc1ccc2c(c1)S(=O)(=O)c1cc(NC(C)=O)ccc1-2 | 1.6% |
| CC(=O)N1c2ccccc2-c2c(sn(-c3ccc(C)cc3)c2=S)C1(C)C | -3.5% |

Reference: PubChem BioAssay AID1240 (Sanford-Burnham Center for Chemical Genomics, 2008)
